According to the supplement of paper PMC3334620:
Over roughly 33,000 sequences, “E-score (-0.5 to 0.5)” has its median near -0.016; the highest 2% begin near 0.31. The list shows a part of the results.

Target: Cst6 (UniProt P40535)
Experiment: PBM E-score (8-mer binding enrichment) (E-score (-0.5 to 0.5)); higher = stronger / more preferred TF binding; most listed sequences are background and not binding sites
Settings: protein concentration: 200 nM; construct: GST-DNA-binding domain
Summary of the method: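 Detection of bound protein used fluorescent anti-GST, with scans normalised by masliner. The proteins were GST-tagged yeast transcription factors applied at about 100-200 nM to universal all-10-mer Agilent arrays made double-stranded by primer extension. Each ungapped eight-base word, pooled with its reverse complement, was scored with an E-score from the Universal PBM Analysis Suite.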

Sequence	PBM E-score
GGTCGAAA	-0.107
GACCCTAC	-0.157
CGCGGTAA	0.0402
AGGGCCTC	-0.241
AAGGCTGT	-0.27
GGTACTCA	-0.0257
ATAGCGAT	0.0555
AGGGCGGA	-0.37
ACCAAGTG	-0.117
AGGGACTC	-0.359
CGTGTCCA	-0.0242
AGAACCTG	-0.221
ATGTCGTA	0.277
GATTAAAC	0.154
TAACGATA	0.163
AATGGTGT	0.0892
ATATTTCC	0.0898
CCTGTCCC	-0.31
TATGCCGA	0.0886
TGATCGAA	0.185
GTCGGCGA	-0.167
CAGCTCAG	-0.0298
TATGGCAA	0.0568
CCTATCTC	-0.0541
GACGGCTC	-0.0374

Sequence	PBM E-score
CTGGAGCA	-0.0734
AAATACCC	-0.0704
AAGCTTGT	-0.0437
GCCGTCAA	0.0714
CGAGCTTA	-0.0873
CCTGATCC	-0.243
AGCGACAA	0.0113
AAGGTTTG	0.137
CTTCTGCC	0.00759
GTTTGGCA	-0.121
AAGTTCGA	0.0664
ATGCCTGC	-0.105
CTACGTAA	0.451
ATGGAGGC	-0.118
CATACAGA	0.177
ACAAATTC	0.138
CAATCGGC	0.106
CACAATAA	0.147
CCAAGCTC	-0.1
CAGTATTC	0.085
GCCAAACA	-0.121
TGTGCCAA	0.0839
CCTGACAG	-0.118
GCCGCACC	0.226
CTGTACGC	-0.0932

Sequence	PBM E-score
GCCGAAAA	0.138
AGTCAACT	-0.176
CTAGTGCA	-0.0643
GCTCGGCC	-0.271
GCAAAGCA	-0.0871
CTATCGAC	-0.222
CTCCCGTC	-0.11
ACAGTACT	-0.17
AGGGCTCA	-0.237
AATCGGGA	-0.0829
CCACCGCC	-0.171
ATTTGGCA	0.0989
GAGACTCA	-0.177
CCATTGCA	0.024
CCGTAGCC	-0.218
ACTTACTG	0.0171
CAATTGAC	0.175
CTCGAACA	0.104
ACCGACCG	-0.137
AGTTCTAC	0.0561
ACTCATGG	-0.0163
AGGGGCTG	-0.271
ATTTCTTC	0.262
GCCTGTTA	-0.0768
GGCAACCA	-0.122

Sequence	PBM E-score
AGATGAAG	-0.127
CTGCAAAG	-0.194
GGGGAGCA	-0.34
AACCGGAG	-0.183
GCCGCCAC	-0.188
CGGTAATC	-0.123
CTATCCTA	-0.0219
ATGGTTAG	0.0482
CTCCACAC	-0.0788
GCAAATCC	0.0459
AGCATCCA	-0.261
CAGCTAAG	-0.287
CTGAAGTA	0.0246
ACAACGTG	-0.096
CGGCAACG	0.0207
GGCTAGAC	-0.161
CTGCTTAA	-0.134
CCAGTTAG	-0.00191
CTGCCCAG	-0.297
TACCTCGA	-0.0707
CAGTAACG	0.0316
TCCCATAA	-0.0488
AACACAGT	0.0535
GGGCTGGA	-0.295
CGTTCAAG	0.0142

Sequence	PBM E-score
ACAGTGGC	-0.0617
GCAGAGGA	-0.123
AAGAGATC	-0.168
CATCTACG	0.05
AGCCCCAC	-0.161
AAACTCGC	-0.051
CCACTTAA	0.016
ACAGTTGC	0.0761
ATTTACCA	0.157
CCGCTTCC	-0.191
AGGTGCTC	-0.333
CTACGGAA	-0.0572
AACTTGAC	0.0406
CCCTGCAC	-0.215
GCATTAGA	0.0922
GCGCCGAC	-0.0138
AGTGGAGC	-0.165
ATAAATCA	0.233
CCGGTGAA	0.0804
TATGCCAA	0.009
CGGAGCTA	-0.157
AGGTGGCA	-0.0341
AGGGAGTC	-0.132
AAGGTCGT	-0.094
AAAGCCTC	0.0176

Sequence	PBM E-score
GGATACCA	-0.197
GATACCGA	-0.108
GAGAGTAC	-0.122
ATCTAACC	0.0628
AGAGGACA	-0.244
CGAAGGCG	0.0989
GTGTCATA	0.249
ATCGCGAC	-0.0926
AGTTCGCA	-0.00496
AACCGCAT	0.108
CCCAACGG	-0.233
CCTGAGAG	-0.189
AAGCCACC	-0.334
ACCCGTTC	-0.0713
AATTGGCT	0.079
CGTTTAAC	0.0149
ACTAAACT	0.122
CGAGCTAG	-0.108
ATGACAAA	0.287
GATTGTGA	0.117
GACAGCTC	-0.214
GTTGAGCA	0.0201
GAAAGGAC	-0.0667
CGAAGCGC	-0.0692
TACTCTCA	0.0473

Sequence	PBM E-score
CCGAGCCC	-0.353
CGCCGGTC	-0.0806
ATAGTTAA	0.121
AAAATTGA	0.22
AGTTTGCC	0.0119
CCCTACCA	0.0249
CTACTGTA	0.0576
TGGTCTAA	-0.176
GACAGGCC	-0.211
GCGGCAGA	-0.0055
CGAAAGGC	0.17
GATAATTA	0.322
CACTGACG	0.371
CGCTCAAA	-0.0669
CCGTTCTC	0.0435
AAATAGGA	0.164
AACTGCTG	-0.205
AGAGGGTA	-0.0387
CGCAGCCG	-0.202
AGCTACCG	-0.183
AGTGTACG	-0.105
ATCCAATA	0.222
TAAGCGGA	0.0337
CGTTAGCC	0.131
CCCAACCC	-0.0951

Sequence	PBM E-score
CAGAACTA	0.0299
ACGCCACT	0.161
GTCTGCCA	-0.185
ACGAAACA	0.198
GTCTCCGA	-0.221
ACTGGCCA	-0.0418
AAATTAAA	0.292
AATCTGCC	-0.105
GCATCAGA	0.159
GTACCCTA	-0.0546
AACGTCTT	0.156
CGCTGACG	0.384
TATGTGCA	0.0745
TATAAACA	0.158
CAGTTTGA	0.035
GCCGCTCC	0.00162
ACACCTGT	-0.144
CGCTGCAA	0.0442
AAGGCGCT	0.118
GTCACAAA	0.221
AATTCTCT	-0.137
CCCCGGAG	-0.0966
AATCTAGG	0.0667
ACAGTGTG	0.087
AGCGTGTA	-0.0303

Sequence	PBM E-score
CCAAAAGG	-0.1
GTTGATCA	0.219
GAATAGAC	0.0948
GTGGGTGA	0.123
ACTGATGA	0.173
GAAACCGA	-0.156
CCTCAATC	0.0338
ACATAATA	0.345
CTGCAAGC	-0.119
CCAGCAGA	-0.191
CATCGGAG	-0.183
CTGATCAA	-0.0253
CGTCGTAC	0.122
ACTGGAGC	-0.202
GGCACGAA	0.196
CAGATCTG	-0.0953
AATTAAGT	0.145
CGACAAAC	-0.0571
AATTCAGA	0.0495
CACGGGGG	-0.209
TGACCTCA	0.45
CTTGGCAA	-0.151
CAATGCTG	-0.0945
GGAGTACA	-0.195
CAAAAGCG	0.0348

Sequence	PBM E-score
GGAATTCA	-0.0551
ACAAAACT	0.199
AATGGAAC	0.0271
AAGAATAG	0.108
ACCAGAGC	-0.0786
AACTCAAG	-0.0175
AGTTGGTA	0.155
ACTTGGCG	-0.143
GCGACCCC	-0.3
CGAAAGCG	-0.0837
AGGGCTCC	-0.376
GGGACATA	-0.0929
CCTTGTCG	-0.171
ATCTCATG	-0.00941
ACATCGGC	-0.0191
GCATTCAC	0.143
ACAATAGT	0.13
AAGAATAA	0.212
AACAGACG	-0.0682
AAACTTCG	0.0971
GCAAAGAC	0.0343
ACTTGGAA	-0.0384
ATCTGGCA	0.043
CCAGACGA	-0.23
ACGGCAAG	0.0822

Sequence	PBM E-score
AATGCCAC	0.00101
GTCGTATA	0.0476
AAGGAGCT	-0.23
CTACATGC	-0.0289
GACGCCAC	0.221
ATCGGACC	-0.197
CCCCCAAC	-0.319
GTAGCAGA	0.174
ACCCCGCG	-0.216
AAGGAAGC	-0.261
TAGAACCA	-0.128
GCAAGATA	0.103
CCTGTGGA	-0.38
GTGCTGGA	-0.274
CAGGCACA	-0.332
CTAGATGA	0.0805
AGAGGTGC	-0.186
GAGGTTTA	-0.0683
GTAATAAC	0.197
ACGCTAAC	0.0936
GCGACCGC	-0.125
ATGCCGGC	-0.164
GCTGGTCA	-0.122
ATATGCAG	-0.116
CCTCAAAG	-0.0862

Sequence	PBM E-score
AGCAGTGA	0.148
AGGGTCGA	-0.254
AACTGTCT	-0.123
CCGTTTAG	0.00119
ATGGTGGA	-0.172
ACCTCAGT	0.013
AGTGAGTC	-0.0412
AAGCGTTA	-0.149
ATTTAGAG	0.0903
GCCCTTCC	-0.121
CAATTTGC	-0.0498
AAGCGGAC	-0.119
ATTCGCTG	0.0849
AACCGCTT	-0.0625
ATCGGGAG	-0.228
GACCGCGC	-0.119
CGAGAAAC	-0.173
GCGAAGTA	0.0714
ACCGGGGC	-0.0853
CACGGTGG	-0.124
ATCGACAC	-0.104
ACGGTGAC	0.307
CTTCACAA	-0.0895
ACAATGAG	-0.0976
CCACGCTC	-0.197

Sequence	PBM E-score
ATCTTTCG	0.0283
AACAGTGG	-0.141
CCTACCCC	-0.353
GATAGTAC	-0.0262
CTGCCGAC	-0.208
ACATAAAA	0.215
AAATCAGA	0.152
CAACCTGG	-0.0574
CCCCGGAA	-0.285
ACGTCGAT	0.316
ACTAACTC	-0.0482
ACTTGTCT	-0.056
ATTCTCCA	-0.00083
AGACGGGA	-0.17
CCCCCACA	-0.344
CCACGCCC	-0.318
ACCAATCA	0.0481
GTCTTTCA	0.103
ACAGACAT	0.0036
ACGTTTGC	0.0388
TACCATGA	0.0226
AGGGCCCG	-0.287
CTGATAAG	0.147
CAATTAGC	0.00345
CCGTCATA	0.363

Sequence	PBM E-score
ACACTTTA	0.0824
ATTGTAAA	0.219
ATTCAACG	0.217
ACCTATAC	0.0599
ATGGACTC	-0.198
TATAGATA	-0.0669
CTGGGTCA	-0.186
AGTGGTGG	-0.141
GAGCTGTA	-0.205
CCCTGTTA	0.0582
GGCGGCAC	0.0354
CATGTGCG	0.0289
AAATAAAT	0.371
CGTCACTC	0.445
TCACGCAA	0.375
AGGGGCTA	-0.209
CGTGCCAA	-0.0861
TGCTCGAA	0.0655
CCCTAAAC	-0.276
